T1: rmGDF8 (R&D) (mouse (from the label rmGDF8 only), UniProt O08689 268-376)
T1 construct: The prefix 'rm' is read as recombinant mouse
T1 sequence (looked up): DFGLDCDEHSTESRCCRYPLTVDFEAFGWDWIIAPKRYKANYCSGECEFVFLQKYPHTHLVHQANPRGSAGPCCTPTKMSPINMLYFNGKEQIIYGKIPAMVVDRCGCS


Each binder was assayed against T1, rmGDF8 (R&D) (assay: Biacore, trap captured on amine-coupled Protein A (CM5), rmGDF8 0.312-20 nM as analyte).
Procedure: Additional GDF8 prodomain Fc constructs were generated as described above. Parental hGDF8 traps hGDF8(105)-hFc and hGDF8(1-64)-hFC were modified to convert Cys residues at positions 39, 42, and/or 76 to Ser or Ala. Kinetic and affinity parameters for GDF8 binding by the modified myostatin traps were determined as described above and are summarized in Table 3. Generally, standard Biacore assays were conducted to determine the kinetic and affinity parameters between GDF8 and various myostatin hGDF8 traps. Assay parameters were as follows: Biacore CM5 chip; surface: amine-coupled Protein A; Regeneration: 100 mM H₃PO₄−1×30 s pulse; flow rate: 50 μl/min; sample injection 250 μl; dissociation time: 60 min; rmGDF8 (R&D) concentrations 0.312-20 nM; buffer: HBS-T.

| Kd [nM] | koff [s⁻¹] | kon [M⁻¹ s⁻¹] | t½ [h] | Binder |
| --- | --- | --- | --- | --- |
| 0.0125 | 5.27e-05 | 4.2e+06 | 3.65 | hGDF8(1-105)(D76A)-hFc (Fc fusion, also called hGDF8(105)-hFc modified) NENSEQKENVEKEGLCNACTWRQNTKSSRIEAIKIQILSKLRLETAPNISKDVIRQLLPKAPPLRELIDQYDVQRADSSDGSLEDDDYHATTETIITMPTESDFLSG[sequence of human IgG1 Fc not given] |
| 0.013 | 2.5e-05 | 1.93e+06 | 7.7 | hGDF8(1-64)-hFc (Fc fusion, also called Amino acids 1-64 of hGDF 8 prodomain fused to hFc with an SG linker) NENSEQKENVEKEGLCNACTWRQNTKSSRIEAIKIQILSKLRLETAPNISKDVIRQLLPKAPPLSG[sequence of human IgG1 Fc not given] |
| 0.0112 | 3.93e-05 | 3.5e+06 | 4.9 | hGDF8(1-64)(C39S, C42S)-hFc (Fc fusion) NENSEQKENVEKEGLSNASTWRQNTKSSRIEAIKIQILSKLRLETAPNISKDVIRQLLPKAPPLSG[sequence of human IgG1 Fc not given] |

Source: patent publication US20060216279A1 (published 2006)
